These results are taken from article PMC4336329 (PLoS ONE, 2015).

Each structure is given as a SMILES string. Screen size: about 310,000 compounds; about 2,200 (0.71%) showed an effect of 50% or more. Effects have a minus sign here. Some of the results follow.

Chain of human ether-à-go-go-related gene (hERG) potassium channel (Q12809 whole entry, looked up): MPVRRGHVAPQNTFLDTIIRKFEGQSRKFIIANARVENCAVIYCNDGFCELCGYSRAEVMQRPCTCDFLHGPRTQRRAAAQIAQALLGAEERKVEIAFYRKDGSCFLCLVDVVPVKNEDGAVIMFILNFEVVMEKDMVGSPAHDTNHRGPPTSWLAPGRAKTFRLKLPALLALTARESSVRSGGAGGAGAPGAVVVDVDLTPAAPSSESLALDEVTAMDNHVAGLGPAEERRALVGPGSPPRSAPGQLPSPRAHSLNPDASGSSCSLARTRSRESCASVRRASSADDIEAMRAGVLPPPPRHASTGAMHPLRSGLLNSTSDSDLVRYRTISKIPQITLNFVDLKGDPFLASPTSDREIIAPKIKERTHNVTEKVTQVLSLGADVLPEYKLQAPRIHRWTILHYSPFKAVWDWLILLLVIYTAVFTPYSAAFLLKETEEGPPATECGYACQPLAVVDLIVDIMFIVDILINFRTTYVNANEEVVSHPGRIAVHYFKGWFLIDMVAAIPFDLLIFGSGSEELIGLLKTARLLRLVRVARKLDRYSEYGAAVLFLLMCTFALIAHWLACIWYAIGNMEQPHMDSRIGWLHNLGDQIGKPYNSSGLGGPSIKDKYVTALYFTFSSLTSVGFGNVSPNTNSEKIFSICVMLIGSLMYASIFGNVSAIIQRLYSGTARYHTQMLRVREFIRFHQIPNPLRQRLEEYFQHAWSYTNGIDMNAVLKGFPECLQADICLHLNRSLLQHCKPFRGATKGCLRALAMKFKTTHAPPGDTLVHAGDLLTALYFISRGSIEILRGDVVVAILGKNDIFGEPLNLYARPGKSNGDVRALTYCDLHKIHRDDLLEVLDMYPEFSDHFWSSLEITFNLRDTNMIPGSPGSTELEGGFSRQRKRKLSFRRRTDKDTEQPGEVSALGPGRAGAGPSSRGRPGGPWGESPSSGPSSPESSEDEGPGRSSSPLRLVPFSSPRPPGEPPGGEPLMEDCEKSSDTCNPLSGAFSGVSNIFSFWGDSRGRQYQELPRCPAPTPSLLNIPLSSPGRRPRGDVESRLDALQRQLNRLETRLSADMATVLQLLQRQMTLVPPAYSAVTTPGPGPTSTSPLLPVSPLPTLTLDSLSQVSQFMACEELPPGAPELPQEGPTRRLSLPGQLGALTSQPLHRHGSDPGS

The assay concerns the target human ether-à-go-go-related gene (hERG) potassium channel (human, UniProt Q12809). The assay can be described thus: primary screen, population patch clamp on CHO cells stably expressing hERG.
As to `Cc1ccc(NC(=S)N(CCCN2CCOCC2)Cc2ccco2)cc1C`, the “hERG current change (%, negative = inhibition) at 1uM” value was -2.78%.

For `CC1CCC/C(=N\NC(=S)NCc2ccccc2)C1` (stereo not drawn), the “hERG current change (%, negative = inhibition) at 1uM” value was 9.36%.

As to `Cc1ccc2oc(=O)c3cnn(CC(=O)N(Cc4ccco4)C4CCCCC4)c3c2c1`, the “hERG current change (%, negative = inhibition) at 1uM” value came to 2.86%.

For the compound `C=CCN1C(=O)c2ccc(C(=O)N3CCC(C(N)=O)CC3)cc2C1=O`, the “hERG current change (%, negative = inhibition) at 1uM” value came out at 7.71%.

For `CCOC(=O)CCc1nc2ccccc2[nH]1`, the “hERG current change (%, negative = inhibition) at 1uM” value stood at 21.3%.

Regarding `Cl.NCCCCC(=O)O`, the “hERG current change (%, negative = inhibition) at 1uM” value was 11.5%.

On to `Cc1ccc(C(=O)NC(C)c2nnc(SCC(=O)NC3CCCC3)n2C)cc1` (stereo not drawn), for which the “hERG current change (%, negative = inhibition) at 1uM” value is on record as -3.25%.

With `CC(C)Oc1cccc(-c2cc(C(=O)NN3CCOCC3)c3ccccc3n2)c1`, the “hERG current change (%, negative = inhibition) at 1uM” value is -25.3%.

Take `O=C(CNC(=O)c1cccnc1)N/N=C/c1ccc(O)cc1O`: the “hERG current change (%, negative = inhibition) at 1uM” value was 8.95%.

On to `COc1ccccc1N1CCN(C(=O)c2sc3nc4n(c(=O)c3c2C)CCC4)CC1`, for which the “hERG current change (%, negative = inhibition) at 1uM” value came to 15.3%.

With `COc1ccc(N(CC(=O)N2CCc3ccccc3C2)S(C)(=O)=O)cc1Cl`, the “hERG current change (%, negative = inhibition) at 1uM” value amounted to 10.6%.

`Cl.O=C(CCN1CCOCC1)NCc1ccccc1`: the “hERG current change (%, negative = inhibition) at 1uM” value was determined as 13.1%.

In the case of `Cc1cc2nc(-c3ccc(SCc4ccccn4)nc3)[nH]c2cc1C`, the “hERG current change (%, negative = inhibition) at 1uM” value is 8.36%.

As to `Cc1ccc(C(=O)ONc2ccc(N=O)cc2)cc1`, the “hERG current change (%, negative = inhibition) at 1uM” value came out at 15.1%.

In the case of `COc1ccc(C(=S)N2CCNCC2)cc1`, the “hERG current change (%, negative = inhibition) at 1uM” value was found to be 6.37%.

Regarding `CC(=O)NCC(=O)OCC(=O)c1ccc(Cl)cc1`, the “hERG current change (%, negative = inhibition) at 1uM” value was 13.1%.

As for `O=C(NCCc1ccc(Cl)cc1)c1ccc(Br)s1`, the “hERG current change (%, negative = inhibition) at 1uM” value is recorded as 13.8%.

For the compound `c1ccc(-c2ncnc3cc4n(c23)CCC4)cc1`, the “hERG current change (%, negative = inhibition) at 1uM” value amounted to 16.1%.

As for `Cc1ccc2c(c1)-c1ccccc1S(=O)(=O)N2`, the “hERG current change (%, negative = inhibition) at 1uM” value was found to be 5.29%.

For `CCCn1c(=O)c2[nH]c(-c3ccc(OCC(=O)Nc4ccc(C#N)cc4)cc3)nc2n(CCC)c1=O`, the “hERG current change (%, negative = inhibition) at 1uM” value is given as 13.4%.

For `CCN(CC(=O)Nc1c(F)cccc1F)C(=O)CN1C(=O)C2CCCCC2C1=O` (stereo not drawn), the “hERG current change (%, negative = inhibition) at 1uM” value came out at 3.22%.

For the compound `CC(=O)c1cccc(NC(=O)C2CC(=O)N(c3cccc(C)c3C)C2)c1` (stereo not drawn), the “hERG current change (%, negative = inhibition) at 1uM” value is listed as 5.94%.

As for `COc1ccc(N(CC(=O)Nc2ccccc2F)S(=O)(=O)c2ccc(C)c([N+](=O)[O-])c2)cc1`, the “hERG current change (%, negative = inhibition) at 1uM” value amounted to 3.73%.

As for `O=C1CCCN1CCCN1CC(C(=O)N(CCO)Cc2ccccc2)CCC1=O` (stereo not drawn), the “hERG current change (%, negative = inhibition) at 1uM” value is recorded as 7.12%.

For the compound `CCC(=O)NCCc1nc(-c2ccccc2)no1`, the “hERG current change (%, negative = inhibition) at 1uM” value is listed as 7.96%.

On to `CCOC(=O)c1ccc(N=C2NC(=O)CS2)cc1`, for which the “hERG current change (%, negative = inhibition) at 1uM” value was -6.26%.

For `COC(=O)c1c(NC(=O)c2ccccc2[N+](=O)[O-])sc2c1CC(C)(C)NC2(C)C`, the “hERG current change (%, negative = inhibition) at 1uM” value was 8.73%.

Turning to `COc1ccc(F)cc1C(=O)C1CCCN(Cc2cccn2-c2cccnc2)C1` (stereo not drawn), the “hERG current change (%, negative = inhibition) at 1uM” value amounted to 5.09%.

In the case of `NC(=O)c1ccc(SCC(=O)OCC(=O)NCC2CCCCC2)c([N+](=O)[O-])c1`, the “hERG current change (%, negative = inhibition) at 1uM” value is 12.5%.

Regarding `O=C(Cc1ccc(-n2c(=O)c3ccccc3n(Cc3ccccc3Cl)c2=O)cc1)NCC1CCCO1` (stereo not drawn), the “hERG current change (%, negative = inhibition) at 1uM” value came to 9.39%.

As to `CCOc1ccc(N=Nc2c(N)[nH][nH]c2=O)cc1`, the “hERG current change (%, negative = inhibition) at 1uM” value amounted to 7.58%.

Consider `CCCCC(=O)Nc1cc2nn(-c3ccc(OC)cc3)nc2cc1C`, for which the “hERG current change (%, negative = inhibition) at 1uM” value is recorded as 19%.

On to `Nc1nc2c(s1)CCCCCCCCCC2`, for which the “hERG current change (%, negative = inhibition) at 1uM” value came out at 16%.

Consider `Cc1cc(C)c(C(=O)N2CCC(N3CCC(C(=O)NC(C)C)CC3)CC2)o1`, for which the “hERG current change (%, negative = inhibition) at 1uM” value is reported as -15.2%.

As to `Cc1onc(-c2c(F)cccc2Cl)c1C(=O)NCC1COc2ccccc2O1` (stereo not drawn), the “hERG current change (%, negative = inhibition) at 1uM” value is recorded as 0.895%.

With `CCN(CC)S(=O)(=O)c1ccc2[nH]cc(C(=O)NCCC3=CCCCC3)c(=O)c2c1`, the “hERG current change (%, negative = inhibition) at 1uM” value was 5.01%.

In the case of `CCCCCn1c(=O)c(C(=O)NCc2ccncc2)c(O)c2ccccc21`, the “hERG current change (%, negative = inhibition) at 1uM” value is recorded as 2.72%.

Turning to `Cc1ccc(Cc2cnc(N3C(=N)SC(C)C3=O)s2)cc1` (stereo not drawn), the “hERG current change (%, negative = inhibition) at 1uM” value was -0.252%.

As to `Cc1cc(=O)[nH]c(SCC(=O)c2ccccc2)c1C#N`, the “hERG current change (%, negative = inhibition) at 1uM” value is on record as 2.86%.

On to `Cl.c1ccc(N2CCN(c3nc(NCc4ccco4)c4ccccc4n3)CC2)cc1`, for which the “hERG current change (%, negative = inhibition) at 1uM” value is given as -9.89%.

Regarding `NNC(=S)Nc1ccc(S(=O)(=O)N2CCCCC2)cc1`, the “hERG current change (%, negative = inhibition) at 1uM” value was 11.4%.

Consider `COc1ccnc(Nc2cccc(C)c2)c1C#N`, for which the “hERG current change (%, negative = inhibition) at 1uM” value was -5.75%.

Consider `CC(C)CCNC(=O)c1cc(S(=O)(=O)N2CCc3ccccc32)cn1C`, for which the “hERG current change (%, negative = inhibition) at 1uM” value was determined as 13.7%.

Take `Cc1ccc(NC(=O)C2CCN(S(=O)(=O)c3c(C)noc3/C=C/N(C)C)CC2)cc1`: the “hERG current change (%, negative = inhibition) at 1uM” value was found to be 15.8%.

With `CC(C)n1ncc2c(C(=O)NCc3ccccc3CN(C)C)cc(C3CC3)nc21`, the “hERG current change (%, negative = inhibition) at 1uM” value was 0.977%.
